# According to patent US20260022143A1, “Cyclic Peptide Inhibitors of IL-23” (JANSSEN PHARMACEUTICA NV, priority 2022, published 2026):
# Target: T1, IL-23R (Homo sapiens, UniProt Q5VWK5)
# T1 construct: host or cells: HEK293
# T1 sequence (Q5VWK5 24-629): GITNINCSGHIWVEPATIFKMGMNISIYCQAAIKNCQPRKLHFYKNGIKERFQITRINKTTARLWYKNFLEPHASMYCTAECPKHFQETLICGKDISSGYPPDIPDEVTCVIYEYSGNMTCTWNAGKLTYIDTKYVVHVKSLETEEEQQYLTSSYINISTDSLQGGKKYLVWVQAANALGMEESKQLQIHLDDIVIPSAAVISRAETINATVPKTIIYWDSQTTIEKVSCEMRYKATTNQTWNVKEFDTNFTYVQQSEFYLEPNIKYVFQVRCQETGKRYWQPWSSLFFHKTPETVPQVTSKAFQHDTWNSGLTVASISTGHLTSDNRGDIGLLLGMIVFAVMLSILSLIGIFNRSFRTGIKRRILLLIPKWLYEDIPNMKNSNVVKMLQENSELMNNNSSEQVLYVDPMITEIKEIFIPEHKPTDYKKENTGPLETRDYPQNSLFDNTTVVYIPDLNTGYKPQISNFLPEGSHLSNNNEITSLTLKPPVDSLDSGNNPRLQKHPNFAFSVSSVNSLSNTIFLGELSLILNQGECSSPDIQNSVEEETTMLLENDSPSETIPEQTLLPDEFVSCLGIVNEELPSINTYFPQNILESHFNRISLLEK
# Experiment: IL23R Reporter Assay
# Format: cell-based
# Details: IL23R Reporter Assay (micromolar), HEK293 cells containing IL-23R, IL-12RP1 and STAT-inducible firefly luciferase reporter; 10 ng/mL IL-23 (EC90); 5 h at 37° C.
row,Compound,IC50
1,"CC(=O)NCCCC[C@@H]1NC(=O)[C@H](Cc2c[nH]c3c(C)cccc23)NC(=O)[C@H]([C@@H](C)O)NC(=O)[C@H](CC(N)=O)NC(=O)[C@@H](NC(C)=O)C(C)(C)SSC(C)(C)[C@@H](C(=O)N[C@@H](Cc2ccc(OCCN)cc2)C(=O)N[C@@H](Cc2ccc3ccccc3c2)C(=O)N[C@@](C)(CCCCN)C(=O)N[C@H](CCCCNC(C)=O)C(=O)N[C@@H](CC(N)=O)C(=O)N[C@H](CC(C)C)C(=O)N(C)[C@H](Cc2ccc(O)cc2)C(N)=O)NC1=O (racemic) [compound 6, MeCO-Pen(3)-N-T-7MeW-K(Ac)-Pen(3)-AEF-2Nal-aMeK-k(Ac)-N-dL-NMeDTyr-CONH2]",64 nM
2,"CC(=O)N[C@H](CCCNC(=N)N)C(=O)N[C@@H]1C(=O)N[C@@H](CCC(N)=O)C(=O)N[C@@H]([C@@H](C)O)C(=O)N[C@@H](Cc2c[nH]c3ccccc23)C(=O)N[C@@H](CCC(N)=O)C(=O)N[C@H](C(=O)N[C@@H](Cc2ccc(OCCN)cc2)C(=O)N[C@@H](Cc2ccc3ccccc3c2)C(=O)NC2(C(=O)N[C@@](C)(CCC(=O)O)C(=O)N[C@@H](CC(N)=O)C(=O)N[C@@H](Cc3ccccc3)C(=O)N(C)[C@H](Cc3ccc(O)cc3)C(N)=O)CCOCC2)C(C)(C)SSC1(C)C [compound 3, MeCO-r-Pen(3)-Q-T-W-Q-Pen(3)-AEF-2Nal-THp-aMeE-N-F-NMeDTyr-CONH2]",2000 nM
3,"CC(=O)N[C@H](CCCNC(=N)N)C(=O)N[C@@H]1C(=O)N[C@@H](CCC(N)=O)C(=O)N[C@@H]([C@@H](C)O)C(=O)N[C@@H](Cc2c[nH]c3ccccc23)C(=O)N[C@@H](CCC(N)=O)C(=O)N[C@H](C(=O)N[C@@H](Cc2ccc(OCCN)cc2)C(=O)N[C@@H](Cc2ccc3ccccc3c2)C(=O)NC2(C(=O)N[C@@H](CCC(=O)O)C(=O)N[C@@H](CC(N)=O)C(=O)N[C@@H](CC(N)=O)C(=O)N(C)[C@H](Cc3ccc(O)cc3)C(N)=O)CCOCC2)C(C)(C)SSC1(C)C [compound 4, MeCO-r-Pen(3)-Q-T-W-Q-Pen(3)-AEF-2Nal-THP-E-N-N-NMe DTyr-CONH2]",290 nM
4,"CC(=O)NCCCC[C@@H]1NC(=O)[C@H](Cc2c[nH]c3c(C)cccc23)NC(=O)[C@H]([C@@H](C)O)NC(=O)[C@H](CC(N)=O)NC(=O)[C@@H](NC(C)=O)C(C)(C)SSC(C)(C)[C@@H](C(=O)N[C@@H](Cc2ccc(OCCN)cc2)C(=O)N[C@@H](Cc2ccc3ccccc3c2)C(=O)N[C@@](C)(CCCCN)C(=O)N[C@H](CCCCNC(C)=O)C(=O)N[C@@H](CC(N)=O)C(=O)N[C@H](CCCCN)C(=O)N(C)[C@H](Cc2ccc(O)cc2)C(N)=O)NC1=O [compound 5, MeCO-Pen(3)-N-T-7MeW-K(Ac)-Pen(3)-AEF-2Nal-aMeK-k(Ac)-N-dK-NMeDTyr-CONH2]",53 nM
5,"CC(=O)NCCCC[C@@H]1NC(=O)[C@H](Cc2c[nH]c3c(C)cccc23)NC(=O)[C@H]([C@@H](C)O)NC(=O)[C@H](CC(N)=O)NC(=O)[C@@H](NC(C)=O)C(C)(C)SSC(C)(C)[C@@H](C(=O)N[C@@H](Cc2ccc(OCCN)cc2)C(=O)N[C@@H](Cc2ccc3ccccc3c2)C(=O)N[C@@](C)(CCCCN)C(=O)N[C@@H](CCCCNC(C)=O)C(=O)N[C@@H](CC(N)=O)C(=O)N[C@@H](Cc2ccccc2)C(=O)N(C)[C@H](Cc2ccc(O)cc2)C(N)=O)NC1=O [compound 7, MeCO-Pen(3)-N-T-7MeW-K(Ac)-Pen(3)-AEF-2Nal-aMeK-K(Ac)-N-F-NMeDTyr-CONH2]",510 nM
6,"CC(=O)NCCCC[C@@H]1NC(=O)[C@H](Cc2c[nH]c3c(C)cccc23)NC(=O)[C@H]([C@@H](C)O)NC(=O)[C@H](CC(N)=O)NC(=O)[C@@H](NC(C)=O)C(C)(C)SSC(C)(C)[C@@H](C(=O)N[C@@H](Cc2ccc(OCCN)cc2)C(=O)N[C@@H](Cc2ccc3ccccc3c2)C(=O)N[C@@](C)(CCCCN)C(=O)N[C@@H](CCCCNC(C)=O)C(=O)N[C@@H](CC(N)=O)C(=O)N[C@@H](Cc2c[nH]cn2)C(=O)N(C)[C@H](Cc2ccc(O)cc2)C(N)=O)NC1=O [compound 8, MeCO-Pen(3)-N-T-7MeW-K(Ac)-Pen(3)-AEF-2Nal-aMeK-K(Ac)-N-H-NMeDTyr-CONH2]",89 nM
7,"CC(=O)NCCCC[C@@H]1NC(=O)[C@H](Cc2c[nH]c3c(C)cccc23)NC(=O)[C@H]([C@@H](C)O)NC(=O)[C@H](CC(N)=O)NC(=O)[C@@H](NC(=O)[C@@H](CCCNC(=N)N)NC(C)=O)C(C)(C)SSC(C)(C)[C@@H](C(=O)N[C@@H](Cc2ccc(OCCN)cc2)C(=O)N[C@@H](Cc2ccc3ccccc3c2)C(=O)N[C@@](C)(CCCCN)C(=O)N[C@@H](CCC(=O)O)C(=O)N[C@@H](CC(N)=O)C(=O)N[C@@H](Cc2c[nH]cn2)C(=O)N(C)[C@H](Cc2ccc(O)cc2)C(N)=O)NC1=O [compound 9, MeCO-r-Pen(3)-N-T-7MeW-K(Ac)-Pen(3)-AEF-2Nal-aMeK-E-N-H-NMeDTyr-CONH2]",53 nM
8,"CC(=O)NCCCC[C@@H]1NC(=O)[C@H](Cc2c[nH]c3c(C)cccc23)NC(=O)[C@H]([C@@H](C)O)NC(=O)[C@H](CC(N)=O)NC(=O)[C@@H](NC(=O)[C@@H](CCCNC(=N)N)NC(C)=O)C(C)(C)SSC(C)(C)[C@@H](C(=O)N[C@@H](Cc2ccc(OCCN)cc2)C(=O)N[C@@H](Cc2ccc3ccccc3c2)C(=O)NC2(C(=O)N[C@@H](CCC(=O)O)C(=O)N[C@@H](CC(N)=O)C(=O)N[C@H](Cc3c[nH]cn3)C(=O)N(C)[C@H](Cc3ccc(O)cc3)C(N)=O)CCOCC2)NC1=O [compound 11, MeCO-r-Pen(3)-N-T-7MeW-K(Ac)-Pen(3)-AEF-2Nal-THP-E-N-h-NMeDTyr-CONH2]",> 16600 nM
9,"CC(=O)NCCCC[C@@H]1NC(=O)[C@H](Cc2c[nH]c3c(C)cccc23)NC(=O)[C@H]([C@@H](C)O)NC(=O)[C@H](CC(N)=O)NC(=O)[C@@H](NC(=O)[C@@H](CCCNC(=N)N)NC(C)=O)C(C)(C)SSC(C)(C)[C@@H](C(=O)N[C@@H](Cc2ccc(OCCN)cc2)C(=O)N[C@@H](Cc2ccc3ccccc3c2)C(=O)NC2(C(=O)N[C@@H](CCC(=O)O)C(=O)N[C@@H](CC(N)=O)C(=O)N[C@@H](CC(N)=O)C(=O)N(C)[C@H](Cc3ccc(O)cc3)C(N)=O)CCOCC2)NC1=O [compound 12, MeCO-r-Pen(3)-N-T-7MeW-K(Ac)-Pen(3)-AEF-2Nal-THP-E-N-N-NMeDTyr-CONH2]",> 16600 nM
10,"CC(=O)NCCCC[C@@H]1NC(=O)[C@H](Cc2c[nH]c3c(C)cccc23)NC(=O)[C@H]([C@@H](C)O)NC(=O)[C@H](CC(N)=O)NC(=O)[C@@H](NC(C)=O)C(C)(C)SSC(C)(C)[C@@H](C(=O)N[C@@H](Cc2ccc(OCCN)cc2)C(=O)N[C@@H](Cc2ccc3ccccc3c2)C(=O)N[C@@](C)(CCCCN)C(=O)N[C@@H](CCCCNC(C)=O)C(=O)N[C@@H](CC(N)=O)C(=O)N[C@@H](CC(N)=O)C(=O)N(C)[C@H](Cc2ccc(O)cc2)C(N)=O)NC1=O [compound 13, MeCO-Pen(3)-N-T-7MeW-K(Ac)-Pen(3)-AEF-2Nal-aMeK-K(Ac)-N-N-NMeDTyr-CONH2]",160 nM
11,"CC(=O)NCCCC[C@@H]1NC(=O)[C@H](Cc2c[nH]c3c(C)cccc23)NC(=O)[C@H]([C@@H](C)O)NC(=O)[C@H](CC(N)=O)NC(=O)[C@@H](NC(C)=O)C(C)(C)SSC(C)(C)[C@@H](C(=O)N[C@@H](Cc2ccc(OCCN)cc2)C(=O)N[C@@H](Cc2ccc3ccccc3c2)C(=O)N[C@@](C)(CCCCN)C(=O)N[C@@H](CCCCNC(C)=O)C(=O)N[C@@H](CC(N)=O)C(=O)N[C@@H](C(=O)N(C)[C@H](Cc2ccc(O)cc2)C(N)=O)C(C)C)NC1=O [compound 14, MeCO-Pen(3)-N-T-7MeW-K(Ac)-Pen(3)-AEF-2Nal-aMeK-K(Ac)-N-v-NMeDTyr-CONH2]",140 nM
12,"CC(=O)NCCCC[C@@H]1NC(=O)[C@H](Cc2c[nH]c3c(C)cccc23)NC(=O)[C@H]([C@@H](C)O)NC(=O)[C@H](CC(N)=O)NC(=O)[C@@H](NC(C)=O)C(C)(C)SSC(C)(C)[C@@H](C(=O)N[C@@H](Cc2ccc(OCCN)cc2)C(=O)N[C@@H](Cc2ccc3ccccc3c2)C(=O)N[C@@](C)(CCCCN)C(=O)N[C@@H](CCCCNC(C)=O)C(=O)N[C@@H](CC(N)=O)C(=O)N[C@@H](C(=O)N(C)[C@H](Cc2ccc(O)cc2)C(N)=O)[C@H](C)O)NC1=O [compound 15, MeCO-Pen(3)-N-T-7MeW-K(Ac)-Pen(3)-AEF-2Nal-aMeK-K(Ac)-N-t-NMeDTyr-CONH2]",210 nM
13,"CC(=O)NCCCC[C@@H]1NC(=O)[C@H](Cc2c[nH]c3c(C)cccc23)NC(=O)[C@H]([C@@H](C)O)NC(=O)[C@H](CC(N)=O)NC(=O)[C@@H](NC(C)=O)C(C)(C)SSC(C)(C)[C@@H](C(=O)N[C@@H](Cc2ccc(OCCN)cc2)C(=O)N[C@@H](Cc2ccc3ccccc3c2)C(=O)N[C@@](C)(CCCCN)C(=O)N[C@@H](CCCCNC(C)=O)C(=O)N[C@@H](CC(N)=O)C(=O)N[C@H](CCCN)C(=O)N(C)[C@H](Cc2ccc(O)cc2)C(N)=O)NC1=O [compound 18, MeCO-Pen(3)-N-T-7MeW-K(Ac)-Pen(3)-AEF-2Nal-aMeK-K(Ac)-N-orn-NMeDTyr-CONH2]",43 nM
14,"CC(=O)NCCCC[C@@H]1NC(=O)[C@H](Cc2c[nH]c3c(C)cccc23)NC(=O)[C@H]([C@@H](C)O)NC(=O)[C@H](CC(N)=O)NC(=O)[C@@H](NC(C)=O)C(C)(C)SSC(C)(C)[C@@H](C(=O)N[C@@H](Cc2ccc(OCCN)cc2)C(=O)N[C@@H](Cc2ccc3ccccc3c2)C(=O)N[C@@](C)(CCCCN)C(=O)N[C@@H](CCCCNC(C)=O)C(=O)N[C@@H](CC(N)=O)C(=O)N[C@H](CO)C(=O)N(C)[C@H](Cc2ccc(O)cc2)C(N)=O)NC1=O [compound 19, MeCO-Pen(3)-N-T-7MeW-K(Ac)-Pen(3)-AEF-2Nal-aMeK-K(Ac)-N-s-NMeDTyr-CONH2]",110 nM
